The other results are listed elsewhere or left out.
What follows are sequences tested against T1, OsWOX13 (Oryza sativa, UniProt Q5QMM3 1-267) (assay: protein-binding microarray (RPBM); PBS, 2% BSA, 51.3 ng/ul salmon testes DNA, 50 uM zinc acetate, 200 nM TF, 25 C, 1 h; high values mean tight binding). Conditions: protein: recombinant; tags: N-terminal polyhistidine and DsRed monomer fusion (pET32a); label: CyDye5-dUTP incorporated in the synthesized complementary strand; 3' TTTTT single-stranded linker to array surface; dsDNA, one strand shown.
T1 sequence: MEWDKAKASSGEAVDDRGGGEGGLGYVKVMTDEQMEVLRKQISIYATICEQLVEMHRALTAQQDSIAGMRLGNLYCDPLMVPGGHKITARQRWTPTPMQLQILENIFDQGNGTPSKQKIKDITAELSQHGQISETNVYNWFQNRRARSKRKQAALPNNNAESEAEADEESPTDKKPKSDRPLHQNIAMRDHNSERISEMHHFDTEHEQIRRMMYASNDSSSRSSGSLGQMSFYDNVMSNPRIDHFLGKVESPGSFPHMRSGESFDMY
Summary of the method: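 The binding signal for each feature is its fluorescence intensity in arbitrary units. An Axon 4000B scanner was used to read a custom Agilent array that had been made double-stranded with Cy5-dUTP primer extension, blocked with 2% BSA, incubated at 25 °C for 1 h with 200 nM protein in PBS, 2% BSA, salmon testes DNA and 50 µM zinc acetate, and washed. The protein was an N-terminal polyhistidine–DsRed transcription factor fusion from E. coli BL21-CodonPlus, purified on Ni–NTA.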

| Sequence | binding signal |
| --- | --- |
| CATGCTCACAATTTAATTAACAACAACCGAGGCACTCAAGCGGAGTCACCTAGTGCAG | 6310 fluorescence intensity (a.u.) |
| GAAAATAATTGAAACCCTAGAATTTGAGGGGAATATCCCACGGAGTCACCTAGTGCAG | 22800 fluorescence intensity (a.u.) |
| TATAATTGTTACTGTTAATTGAGGTGGGAAATACCAGGTGCGGAGTCACCTAGTGCAG | 53500 fluorescence intensity (a.u.) |
| TGAGGATGTATGATTTGTTCACAATTTCAAAATGAGGGTACGGAGTCACCTAGTGCAG | 3170 fluorescence intensity (a.u.) |
| ACATAACAAAGCCTGATTGGCACAGCAGGGAGGCTGCAACCGGAGTCACCTAGTGCAG | 27400 fluorescence intensity (a.u.) |
| ACAATGATGTCAATTTCTTCTTAGGTAAGTCGTGTCGGCTCGGAGTCACCTAGTGCAG | 13300 fluorescence intensity (a.u.) |
| ATGATGATATCTTGATGACTTGATGTGTTATATATTGTTTCGGAGTCACCTAGTGCAG | 12100 fluorescence intensity (a.u.) |
| TGTAGTTTGGTTAATTACACAGGCATGAACGAATCCGTTCCGGAGTCACCTAGTGCAG | 3440 fluorescence intensity (a.u.) |
| TAATGATTTACAACACTATGACCACATGGTTAACCTCGTGCGGAGTCACCTAGTGCAG | 25600 fluorescence intensity (a.u.) |
| AGCCAATCAGAATCCAAATAAAACATTCTTGCAGCAGGCGCGGAGTCACCTAGTGCAG | 15900 fluorescence intensity (a.u.) |
| CGACAATTGATATAGCCCATAATAAAATAATTTGAACATTCGGAGTCACCTAGTGCAG | 8020 fluorescence intensity (a.u.) |
| GGAACAAATTGCATATATCCACGGAAGACTCAACAACAGCCGGAGTCACCTAGTGCAG | 3620 fluorescence intensity (a.u.) |
| CTGCAAATTAGAAGTTCAAGCACACATTTGTAAGGTGCAACGGAGTCACCTAGTGCAG | 4650 fluorescence intensity (a.u.) |
| GGAAATTTGTGGTATCCCCTGCATTGAAGAAGAAAATCACCGGAGTCACCTAGTGCAG | 3180 fluorescence intensity (a.u.) |
| GTGGGTGAAATTTGGGTTAACATCATGACATGTGTTATGACGGAGTCACCTAGTGCAG | 3310 fluorescence intensity (a.u.) |
| TCTTCCCCATGATTATGTCAGAGCTATCAATGCACAGATGCGGAGTCACCTAGTGCAG | 7180 fluorescence intensity (a.u.) |
| TGCAAATTGTGCTTTTCTATTCTGTTGTGTCTTCTGCTTTCGGAGTCACCTAGTGCAG | 6060 fluorescence intensity (a.u.) |
| GATTCAGTGATAGCACTGATTGGTCTGGGTGATATGGCCTCGGAGTCACCTAGTGCAG | 28600 fluorescence intensity (a.u.) |
| CCAGATTAATCCTAACCTAAATAAATACACCCAAACCCTACGGAGTCACCTAGTGCAG | 4040 fluorescence intensity (a.u.) |
| ATATCTTTATTGTAATCAATTTTCAACGACGACTAGTTCTCGGAGTCACCTAGTGCAG | 3950 fluorescence intensity (a.u.) |
| CAGATTTGATTTTCACAGCATACCAGCTCATTATCTTGATCGGAGTCACCTAGTGCAG | 23100 fluorescence intensity (a.u.) |

| Sequence | binding signal |
| --- | --- |
| AAGTTAAATTTAGAAGTTGAAACTCTACCAAACATACCCTCGGAGTCACCTAGTGCAG | 5110 fluorescence intensity (a.u.) |
| GATGATGTGACTGAAAAGTTGTGTGTGTATAACAGATTGACGGAGTCACCTAGTGCAG | 12500 fluorescence intensity (a.u.) |
| TTTAATTTAACACATATAAATTACTACATCCGTTCTAGAACGGAGTCACCTAGTGCAG | 4640 fluorescence intensity (a.u.) |
| CAAACTTTATATAGTCCAATCAAATTCAGATGGAGAAATGCGGAGTCACCTAGTGCAG | 3600 fluorescence intensity (a.u.) |
| GCGGTGGCGGTTGGGGTGGCGAGTGGGGAGGAGGAGGCGGCGGAGTCACCTAGTGCAG | 7370 fluorescence intensity (a.u.) |
| CATCATTAATTTCTGTAGCTAGGCCCATATAATTTGTGCACGGAGTCACCTAGTGCAG | 9910 fluorescence intensity (a.u.) |
| TAATTTATACTGTGATTATAATATATTTACAACTGATAAACGGAGTCACCTAGTGCAG | 5940 fluorescence intensity (a.u.) |
| AGATGCTGCATGGTTGATTGGTTTCAAGTAATTTCATGGGCGGAGTCACCTAGTGCAG | 7340 fluorescence intensity (a.u.) |
| TTTAGACAGATGGGCTGAACTGATCTCGCGGGCTGGGCTGCGGAGTCACCTAGTGCAG | 18100 fluorescence intensity (a.u.) |
| GTTAATTAGATCATGATAAAGATTAATGTATAGATCGAGGCGGAGTCACCTAGTGCAG | 62000 fluorescence intensity (a.u.) |
| TATGGTAGATTATTTAACTATATGGTAGATTATACTGTAGCGGAGTCACCTAGTGCAG | 4370 fluorescence intensity (a.u.) |
| TCAGATTGAACGACCAATACTATATGCCAATTGAATGAGCCGGAGTCACCTAGTGCAG | 30600 fluorescence intensity (a.u.) |
| TGCTGAGTTAGCCAGATAGATTGGGTCAACGAGTCATGTTCGGAGTCACCTAGTGCAG | 3520 fluorescence intensity (a.u.) |
| ATATATTTATCATCAATTCCCGCTGTCACTAGCTAGAACGCGGAGTCACCTAGTGCAG | 3950 fluorescence intensity (a.u.) |
| AAACTCCAATTATATTAAATTTGGACTCCTTCCAAATTCGCGGAGTCACCTAGTGCAG | 14400 fluorescence intensity (a.u.) |
| ATAACTAATCATTGAGAAAATATATGGTCGAAGATAATGCCGGAGTCACCTAGTGCAG | 17200 fluorescence intensity (a.u.) |
| CTTCCAAATTGATTCCCTATTAGCCACAAATAATTCTTCACGGAGTCACCTAGTGCAG | 18700 fluorescence intensity (a.u.) |
| TTTGCAATTTTCTCTAAATTAAATAAGATGGTTCCTAGCCCGGAGTCACCTAGTGCAG | 4420 fluorescence intensity (a.u.) |
| TTTCCGGGATATAATTGGCACGTAAGCGCCACGTTAATGCCGGAGTCACCTAGTGCAG | 7100 fluorescence intensity (a.u.) |
| CGCCCCTGCTAATTGGACCAAGGTTCCTAAATCAGTGGTACGGAGTCACCTAGTGCAG | 13400 fluorescence intensity (a.u.) |
| AAGCGTGCTAATTAAGTTGTGCAGTTAACTAGTGCTCCATCGGAGTCACCTAGTGCAG | 5260 fluorescence intensity (a.u.) |

From publication PMC7819943, “Rice protein-binding microarrays: a tool to detect cis-acting elements near promoter regions in rice”
